# Measured values reported in PubChem BioAssay AID1814 (Broad Institute, 2009).
# The campaign covered roughly 300,000 compounds. About 22,000 (7.3%) were called active. This list was built around the results that the source calls inconclusive (neither active nor inactive); the mix of calls is not that of the screen. Cut-off read from the data, not from the text of the source: active = activity score below about -60%; inconclusive = mostly about -28% to -61%; inactive = positive scores.
# Experiment: Activators via SNCA 5'UTR binding, MLPCN (AID 1814)
# Settings: alpha-synuclein 5'UTR reporter, activators screen; hits give low values; tested at 7.5 µM
row,Structure (SMILES),activity score
1,COc1ccc(-c2csc(NC(=S)NC(=O)/C=C/c3ccco3)n2)cc1OC,inactive: 62.9%
2,COc1ccc(-c2n(CC(=O)OC3CC(C)CCC3C(C)C)c3ccccc3[n+]2C)cc1 (stereo not given),inactive: 101%
3,COc1ccc(N=Cc2[nH]c3ccccc3c2O)cc1,inconclusive: -50.5%
4,COc1ccc(/C=N/Nc2cc(C)nc3ccc(OC)cc23)c(OC)c1,inactive: 117%
5,CCN(CC)S(=O)(=O)c1cc([N+](=O)[O-])ccc1NNC(=O)Nc1ccc(Cl)c(Cl)c1,inactive: 58.4%
6,Cc1cc(C=C2C(=O)c3ccccc3C2=O)c(C)n1-c1ccc(Cl)cc1,inconclusive: -55.3%
7,COc1cnc(-c2ccccn2)nc1NC(C)C,inactive: 98.2%
8,Cc1cccc(-c2cc(C(=O)Nc3cccnc3)c3ccccc3n2)c1,inconclusive: -37%
9,Cc1cc(C)c(-c2csc(NC(=O)C3=COCCO3)n2)cc1C,inconclusive: -57.3%
10,COCCNC(=S)N/N=C(\C)c1ccccc1F,inconclusive: -41.2%
11,O=C(CSc1nnc(-c2ccc(Cl)cc2)n1Cc1ccco1)c1cccs1,inconclusive: -53.6%
12,N/C(=N\OC(=O)c1cccc2ccccc12)c1ccncc1,inconclusive: -52.6%
13,CCOC(=O)C(=O)Cc1nc2ccccc2s1,inconclusive: -58.5%
14,Cc1ccc(C(=O)c2cn[nH]c2-c2ccccc2O)cc1,inconclusive: -58.9%
15,CCOc1ccccc1CNC(=O)C1CCN(c2nnc(C)c3c(C)n(-c4ccc(C)cc4)nc23)CC1,inactive: 78%
16,CCOC(=O)c1ccc(NC(=O)Nc2ccon2)cc1,inactive: 64.2%
17,CN1CCN(C(=O)c2cc(-c3cccc(Cl)c3)on2)CC1,inconclusive: -58.9%
18,O=C(NC(=S)Nc1ccc2oc(=O)ccc2c1)c1ccco1,inconclusive: -54.3%
19,Nc1ccccc1SCC(=O)N1CCc2ccccc21,inconclusive: -57.8%
20,O=C(NC(c1ccccc1)c1cc(Cl)c2cccnc2c1O)c1cccnc1 (stereo not given),inactive: 99.7%
21,Cc1c(NC(=O)Nc2ccccc2)cccc1[N+](=O)[O-],inconclusive: -44.6%
22,O=C(N/N=C/c1ccc(Cl)cc1)c1sccc1OCc1ccc(F)cc1,inactive: 72.5%
23,COc1cc(NC(=O)COn2nnc3ccc(S(C)(=O)=O)cc32)cc(OC)c1,inconclusive: -61.4%
24,CC(=O)c1cccc(NC(=O)CN2C(=O)COc3ccc(S(=O)(=O)N4CCOCC4)cc32)c1,inactive: 73%
25,CCOC(=O)C1(CC2CC2)CCN(S(=O)(=O)/C=C/c2ccccc2)CC1,inconclusive: -33%
